Literature values in paper PMC9322071, “Computer-Aided Design and Synthesis of (Functionalized quinazoline)–(α-substituted coumarin)–arylsulfonate Conjugates against Chikungunya Virus” (International Journal of Molecular Sciences, 2022).

Settings: cited from earlier work

## COC(=O)C[C@](O)(CCC(C)(C)O)C(=O)O[C@@H]1C(OC)=C[C@]23CCCN2CCc2cc4c(cc2[C@H]13)OCO4 [Harringtonine, harringtonine]
  cytotoxicity: minimal cytotoxicity
